Reference: a compilation of properties of binary mixtures (doi:10.1016/j.molliq.2018.01.167)
Some of these densities may be calculated back from excess volumes.

Assay: xn = mol fraction of the nth substance listed
Conditions: 100 kPa

CCCC[n+]1ccn(C)c1.F[B-](F)(F)F + OCCO
mass density [kg/m3]
Conditions	283.15 K	293.15 K	303.15 K	313.15 K
x1 = 0.04	1130.7	1123.5	1116.3	–
x1 = 0.0899	1141.3	–	–	–
x1 = 0.1905	1157.6	–	1142.4	–
x1 = 0.2865	1168.8	1161.1	1153.4	1145.8
x1 = 0.3767	–	1169.3	1161.6	1154
x1 = 0.4983	1186.1	1178.5	1170.9	1163.3
x1 = 0.5814	–	1184	1176.5	1169
x1 = 0.6945	–	1190.7	1183.3	1176
x1 = 0.7958	1203.1	–	–	1181.4
x1 = 0.8951	1207.7	1200.6	1193.4	1186.2
x1 = 0.9577	1210.5	–	1196.2	1189.1

CC[n+]1ccn(C)c1.F[B-](F)(F)F + OCCO
mass density [kg/m3]
Conditions	283.15 K	293.15 K	303.15 K	313.15 K
x1 = 0.0483	1139.9	1132.7	1125.4	1118.1
x1 = 0.0765	1150	–	1135.3	1127.9
x1 = 0.178	1180	–	–	–
x1 = 0.2747	–	1194.4	1186.5	–
x1 = 0.3687	1220.2	1212.2	1204.2	1196.3
x1 = 0.4907	1238.9	1230.9	1222.9	1215.1
x1 = 0.5903	1251.6	1243.6	1235.7	1227.9
x1 = 0.6644	1259.9	1251.9	1244.1	1236.3
x1 = 0.7591	–	1261.8	1254	1246.4
x1 = 0.8666	1279.7	1272	1264.3	1256.7
x1 = 0.9378	1285.9	1278.2	1270.6	1263
